Source: the BET-seq Pho4 binding data (Le et al. 2018)
This is one part of the list. The energies were worked out here from pooled read counts, against the library average; single values are noisy.

target: T1, Pho4 (S. cerevisiae) (UniProt P07270); experiment: relative binding free energy (BET-seq); higher = weaker binding; settings: reference: library average
T1 sequence: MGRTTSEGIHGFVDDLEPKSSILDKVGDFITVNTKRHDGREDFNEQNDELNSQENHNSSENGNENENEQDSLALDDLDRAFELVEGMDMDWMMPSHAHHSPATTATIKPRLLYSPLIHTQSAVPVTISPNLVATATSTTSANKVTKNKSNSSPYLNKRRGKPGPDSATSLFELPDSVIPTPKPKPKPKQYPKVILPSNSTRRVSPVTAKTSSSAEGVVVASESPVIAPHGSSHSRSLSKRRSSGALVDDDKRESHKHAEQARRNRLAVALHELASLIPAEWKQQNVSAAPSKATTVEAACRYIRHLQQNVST

Sequence | relative binding free energy [kcal/mol]
GGGTGCACGTGATCTG | 0.09
AAGTGCACGTGGCGGG | -0.06
GTTTTCACGTGGATTC | 0.32
TGTGACACGTGTGATA | 0.18
ATTATCACGTGCGTTT | 0.08
GGTATCACGTGTTATG | 0.25
ATTGACACGTGTTGAA | -0.02
TTCTGCACGTGGTATT | -0.09
CGCGGCACGTGGTGGA | -0.12
GAATCCACGTGGGGTT | 0.07
AGTTTCACGTGCATGG | 0.28
TGGGACACGTGAGAAT | 0.24
GGATTCACGTGATGTT | 0.48
ATGAACACGTGAGAGT | 0.26
GGTCTCACGTGACAGG | 0.42
GACGGCACGTGAGTGG | 0.27
TTGGACACGTGTCTGG | 0.06
TGTTGCACGTGCATAA | -0.05
ATAGACACGTGCGGGT | -0.03
TGAGACACGTGGGTGG | -0.15
TTGGCCACGTGTATGA | 0.06
GGGCGCACGTGCTGTG | -0.16
TGGTCCACGTGCTAGG | -0.01
ATTGGCACGTGTTTCT | -0.11
ACTATCACGTGTTGTT | 0

Sequence | relative binding free energy [kcal/mol]
CTTGGCACGTGCTTGG | -0.14
AGGAACACGTGGGTGC | 0.09
CAGGTCACGTGAGGAT | 0.25
ATCTTCACGTGTTTTT | 0.26
TGGAACACGTGTTGAG | 0.02
ATTAACACGTGCGTGG | -0.03
AGTACCACGTGGTGGT | -0.04
ATCGTCACGTGGCAGG | 0.01
TTCAACACGTGTTGTG | -0.01
TATTGCACGTGGGGTC | -0.24
GTTGACACGTGCATGG | 0.08
TTTGACACGTGAATAT | 0.13
TTCTGCACGTGGAGAG | -0.01
AATGGCACGTGGCAGA | -0.17
AACGGCACGTGGCGGT | -0.2
CGAGACACGTGGGGCG | -0.15
TGCTTCACGTGTGTGC | 0.31
GTGTGCACGTGTCAGG | -0.03
AAGGGCACGTGCGATT | -0.09
GTTGGCACGTGTAGAC | 0.05
TTGTGCACGTGCCATT | -0.02
CGGGCCACGTGGTGTA | -0.23
GTTGACACGTGGATAT | 0.19
GATGGCACGTGCTTGA | -0.06
AATATCACGTGAAAGT | 0.4

Sequence | relative binding free energy [kcal/mol]
GTAATCACGTGGGGAT | 0.06
GATTTCACGTGGTTCG | 0.25
TTATGCACGTGTAGCA | -0.06
AGTGTCACGTGTTCAA | -0.01
TTCGTCACGTGTGTGA | 0.16
TTTTTCACGTGCGTTT | 0.36
AATGTCACGTGAAGTG | 0.26
CATTTCACGTGGTGTA | 0.11
CGTCTCACGTGGGTAT | 0.02
TGATACACGTGAGAGG | 0.18
GTTATCACGTGCTGGT | 0.09
GCGGTCACGTGTGTAG | 0.21
TCAGGCACGTGCGGGT | -0.36
CTGGACACGTGCGGTA | -0.03
GGGTTCACGTGGGATG | 0.22
GTGATCACGTGCCGGT | 0.04
ATTCTCACGTGATTGG | 0.3
TGTTGCACGTGGGGTA | -0.16
TTGCGCACGTGCAGTT | -0.1
TGTTTCACGTGGGCAA | 0.22
TGCGCCACGTGATGGT | 0.13
ATTGCCACGTGAATGT | 0.03
TGATACACGTGTATAT | 0.03
GATAACACGTGAGTTT | 0.24
GGTCGCACGTGGGGGG | -0.1

Sequence | relative binding free energy [kcal/mol]
GGGTCCACGTGGGGTT | -0.02
TTTATCACGTGTTCTT | 0.12
TTGGTCACGTGGTTAC | 0.2
CGTAGCACGTGATAGG | 0.03
ACAATCACGTGGTGGT | 0.09
AGGATCACGTGTTAGA | 0.18
TAGGTCACGTGACGGT | 0.08
CTGTACACGTGAGAGT | 0.22
TATTTCACGTGTCGGT | 0.33
GGGCTCACGTGGCGTA | 0.19
GCGTGCACGTGGTGGC | -0.05
ATTGTCACGTGTTGCG | 0.06
CTGGTCACGTGTATTG | 0.06
ATTTTCACGTGCTGTT | 0.3
GGATGCACGTGAGGTA | 0.22
TAAGACACGTGGCGTT | -0.12
CTAGGCACGTGTAGTG | 0.07
GGATACACGTGTTTAG | 0.23
TTGTACACGTGTAAAG | 0.07
ATAGTCACGTGGGGCA | -0.05
TGCAGCACGTGTGGAT | 0.08
ATTAGCACGTGATTTA | -0.16
TATGGCACGTGTGGAT | 0.02
GGGGACACGTGGTTCT | 0.04
AGGCACACGTGGAAGG | 0.03

Sequence | relative binding free energy [kcal/mol]
TGCGGCACGTGTTAGG | -0.12
AGAGGCACGTGCGAGG | -0.11
GGCGGCACGTGTCGGC | -0.01
GTGGGCACGTGGAGTG | -0.05
GATGGCACGTGGGCGG | -0.2
TTATTCACGTGGCTGA | 0.2
GAAGTCACGTGGGGTA | -0.04
TTATTCACGTGCGTGT | 0.16
AATAGCACGTGTGAGA | 0.03
GGTATCACGTGAGAGG | 0.24
GAGGGCACGTGGGGTG | -0.18
TGATTCACGTGGCGAG | 0.4
TTGGCCACGTGGATGT | -0.08
TAAGGCACGTGGGGCT | -0.29
TTACGCACGTGATTGG | -0.04
GGAAACACGTGTTGGA | 0.05
GTTATCACGTGGTACG | 0.04
AAGGTCACGTGTCGCG | 0.2
TGTATCACGTGGTGAC | 0.05
GTGGACACGTGCTGTT | 0.04
AATGTCACGTGTGCAG | 0.03
AGTATCACGTGGCTGT | 0.07
CTGTTCACGTGGTAGA | 0.28
CGGTGCACGTGAGTAT | 0.13
GGGCACACGTGAGTGT | 0.1

Sequence | relative binding free energy [kcal/mol]
TGTTTCACGTGGTAAC | 0.29
TCTGTCACGTGTTGTA | 0
ATTCTCACGTGAGGAT | 0.33
TGTTGCACGTGAGCGT | 0.05
TTATACACGTGAAGAG | 0.46
GGTACCACGTGTTGGG | -0.21
ATAATCACGTGTATTG | 0.2
ATAGTCACGTGAGTTA | 0.34
TGGTGCACGTGCTTGG | -0.01
GGCTTCACGTGGGTTA | 0.13
GGGCGCACGTGTTGTG | -0.09
TAGCGCACGTGGTTTG | -0.21
GCGGGCACGTGAAGGG | 0.11
GTGTACACGTGTGGGA | 0.15
TTAGGCACGTGAGTAG | 0.05
AGTAACACGTGCAGGT | 0.12
ACCGTCACGTGGTTGG | 0.07
CATTGCACGTGTGGTT | 0.15
ATACTCACGTGTGGGT | -0.07
ACTGTCACGTGTTGAT | 0.17
ATGACCACGTGGAGGT | -0.06
